Results published in the BET-seq Pho4 binding data (Le et al. 2018).
The list shows a part of the results. The energies were worked out here from pooled read counts, against the library average; single values are noisy.

Molecular target: T1, Pho4 (S. cerevisiae) (UniProt P07270)
T1 sequence: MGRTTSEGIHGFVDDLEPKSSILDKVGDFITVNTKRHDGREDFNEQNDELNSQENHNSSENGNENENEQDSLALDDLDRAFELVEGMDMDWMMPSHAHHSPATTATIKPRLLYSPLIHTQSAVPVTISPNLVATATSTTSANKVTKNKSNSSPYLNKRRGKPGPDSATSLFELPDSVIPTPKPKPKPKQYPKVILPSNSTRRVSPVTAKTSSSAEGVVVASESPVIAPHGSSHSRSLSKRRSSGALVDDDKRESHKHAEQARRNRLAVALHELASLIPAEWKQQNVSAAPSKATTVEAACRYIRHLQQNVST
Assay: relative binding free energy (BET-seq); higher = weaker binding
Details: reference: library average

Relative binding free energy, -0.16 kcal/mol:
TTAGACACGTGGTAAG
GGGCGCACGTGGGATG
CTTAGCACGTGTTTGA

Relative binding free energy, -0.31 kcal/mol:
ATGCGCACGTGGGCTG
ACAGGCACGTGGTTTG

Relative binding free energy, -0.09 kcal/mol:
GGGGGCACGTGTTGTG
GTGAGCACGTGCAAGG

Relative binding free energy, 0.06 kcal/mol:
ATAATCACGTGGTTGC
AAAAGCACGTGTGGTA
AGGTCCACGTGATATG
TTGTGCACGTGAGTAT

Relative binding free energy, 0.34 kcal/mol:
ATTCACACGTGGATTT

Relative binding free energy, -0.24 kcal/mol:
TAAGGCACGTGGGTCG
GGTCACACGTGGGTGA

Relative binding free energy, -0.07 kcal/mol:
CGGGGCACGTGTGGTC
CGTTGCACGTGGTGTC
GGTTGCACGTGGTATT
TGGCGCACGTGTGTGT

Relative binding free energy, 0.21 kcal/mol:
GCGTGCACGTGAAGTT

Relative binding free energy, -0.06 kcal/mol:
TGGAGCACGTGCGGAG
TGTGTCACGTGGGGCC
AGTGACACGTGGATTG
TTTTGCACGTGGCGTA
GGATGCACGTGCATGT
ATTTACACGTGCGTAG

Relative binding free energy, -0.22 kcal/mol:
GGGCGCACGTGCGTGT

Relative binding free energy, 0.29 kcal/mol:
GAAGTCACGTGGATTT
GGGGTCACGTGTTTTG
TATTTCACGTGAAGGT
AAGAACACGTGAGGGT
CGGCACACGTGAGGGT

Relative binding free energy, 0.14 kcal/mol:
AGTTTCACGTGTTCGA
GAGGACACGTGTTTGA
GGGGTCACGTGCTGTA
CATTACACGTGTGGTG
AGTGGCACGTGAGCTG

Relative binding free energy, -0.01 kcal/mol:
GGCGACACGTGGGAAG
ATGGACACGTGCGGGG
AAGTGCACGTGTGTGT
CCGTGCACGTGATGGG
AAGCGCACGTGTGCGG
TGTAACACGTGCGTTT

Relative binding free energy, 0.25 kcal/mol:
GAGCTCACGTGGGAAG
GATGTCACGTGAGCGT
GTTTTCACGTGGGTTG

Relative binding free energy, 0.1 kcal/mol:
TGGCGCACGTGTGGCT
TATTGCACGTGTGATT
TAGTGCACGTGAGTCA
GTCCACACGTGGGAGG

Relative binding free energy, -0.32 kcal/mol:
CATGCCACGTGGGGGT

Relative binding free energy, -0.21 kcal/mol:
GAGGGCACGTGGGGCG
TCGGCCACGTGGGTTA

Relative binding free energy, 0.01 kcal/mol:
GTGGTCACGTGGGGGG
ATAGGCACGTGTATTT

Relative binding free energy, -0.02 kcal/mol:
TGTGACACGTGGTTTG
GTCAGCACGTGCGGGT
TGTAGCACGTGTTGTA
TAAAGCACGTGATTTT
GTGACCACGTGATGGT
CTAGTCACGTGGCGTG
ATAGACACGTGTATAG
TGAGTCACGTGGGGGA

Relative binding free energy, 0.11 kcal/mol:
GTTTACACGTGTTGCT
GTGTGCACGTGTATTT
TTGTGCACGTGTGGTT
CTCGTCACGTGGTTGT
TTCTACACGTGTGGGT
AAGATCACGTGATAGG

Relative binding free energy, 0.46 kcal/mol:
GTGTTCACGTGAGGAA

Relative binding free energy, 0.03 kcal/mol:
CTTATCACGTGTATTT
TACGACACGTGTGGAG
CGGCGCACGTGTGTAG
TCTTGCACGTGATAGT
TGGGACACGTGGAAGC
AGGGTCACGTGGGGAC
TGCGGCACGTGAGAGT

Relative binding free energy, 0.19 kcal/mol:
TTGAACACGTGAGCGT
AGTTTCACGTGGAGTA
CGGGTCACGTGACTGG
GAAGTCACGTGATAGT
GTTGCCACGTGATTTT

Relative binding free energy, -0.1 kcal/mol:
TGTTGCACGTGGTTCA
TATAGCACGTGTTTTC
GGGGGCACGTGGGGAG
TAAGGCACGTGCGGAA

Relative binding free energy, -0.05 kcal/mol:
AGCGACACGTGGTTTT
ATATCCACGTGGAGGT
TTGTCCACGTGTTGTT
GTTAGCACGTGGCATG
TGAGCCACGTGGAGTT

Relative binding free energy, 0.31 kcal/mol:
TAGTTCACGTGATGAG
GCAGTCACGTGATGTG
TTAATCACGTGAGGGA

Relative binding free energy, 0.35 kcal/mol:
GGTGTCACGTGAAAGT
GGCTTCACGTGGAAGG
GTTCTCACGTGTTAGT
TTATTCACGTGTGAAC

Relative binding free energy, 0 kcal/mol:
TTACACACGTGGAGGG
CTCGGCACGTGATGGT
TGATACACGTGTTTAG

Relative binding free energy, 0.16 kcal/mol:
AGTGTCACGTGTCTGA
TTTGACACGTGGAAGC
AGTTTCACGTGCGTGA
AATTGCACGTGAGGGA
GGATACACGTGTGATT

Relative binding free energy, 0.07 kcal/mol:
GGGTCCACGTGTGGAG
GTGTGCACGTGGCATC
TAAATCACGTGTTAGT
GGCGACACGTGGTTAT

Relative binding free energy, 0.04 kcal/mol:
CTTATCACGTGTGGGT

Relative binding free energy, -0.17 kcal/mol:
TTAGGCACGTGTGCGG

Relative binding free energy, 0.4 kcal/mol:
TGCTTCACGTGAGTCG
AAGTTCACGTGGTTTC

Relative binding free energy, -0.04 kcal/mol:
CCTGGCACGTGTTGTT
AGAGTCACGTGTTGTG
GTAGGCACGTGGATGA
AGGACCACGTGTGGTA

Relative binding free energy, 0.17 kcal/mol:
TAAGTCACGTGTGGCA
ATCGTCACGTGTGGTC
GTCTGCACGTGATCGT
ATATGCACGTGAGTGG
TGGGGCACGTGAATAA

Relative binding free energy, 0.13 kcal/mol:
GTATACACGTGTAGTT
TTACTCACGTGTTTGG
GGGTCCACGTGGTTTG

Relative binding free energy, -0.15 kcal/mol:
GGAGACACGTGGTGTA

Relative binding free energy, -0.13 kcal/mol:
TGAGTCACGTGCTATG
GTGTGCACGTGCATGA
AGTCGCACGTGGTATT
ATTGGCACGTGGTTGA

Relative binding free energy, 0.15 kcal/mol:
GGAGTCACGTGGTTGC
GTCAGCACGTGAGGGA
CGTTTCACGTGGGTAT
TGTTACACGTGTACGT
CTGTACACGTGATTGG

Relative binding free energy, 0.3 kcal/mol:
AGTTTCACGTGTGCAG

Relative binding free energy, 0.09 kcal/mol:
GGTTACACGTGGTTCG
GAATCCACGTGTGTGG
TGGCCCACGTGATGGG

Relative binding free energy, -0.11 kcal/mol:
CGGCCCACGTGGGTTG

Relative binding free energy, 0.27 kcal/mol:
GACGTCACGTGTAGTG
TTGATCACGTGGAAGG
TATTTCACGTGGTGAG

Relative binding free energy, 0.51 kcal/mol:
TGTCTCACGTGAAAGG

Relative binding free energy, 0.23 kcal/mol:
TGCAGCACGTGAGGCT
TAGATCACGTGGAGAT
GGAATCACGTGTGGGG
TGCTTCACGTGTGTAG
TGTTTCACGTGTCTTT

Relative binding free energy, 0.36 kcal/mol:
AAGTTCACGTGTTCTG

Relative binding free energy, 0.28 kcal/mol:
TTGATCACGTGTCAGG
TGAGTCACGTGAATGG
GGTAGCACGTGAAATT
GTGGTCACGTGAGTAA
GGGTACACGTGGATTC
AGAGTCACGTGAGTTG
GATATCACGTGTTAAG

Relative binding free energy, 0.33 kcal/mol:
TAGTACACGTGAGATT

Relative binding free energy, -0.18 kcal/mol:
TGAAGCACGTGGGCAT

Relative binding free energy, 0.08 kcal/mol:
GATGTCACGTGGGTAG
AGTTACACGTGGTATT
CGTGTCACGTGGCGTC
AGTTGCACGTGGAAAG
AGCTGCACGTGCTTTT
ATTTCCACGTGGAGTG
TTCTTCACGTGGGATA

Relative binding free energy, 0.26 kcal/mol:
GAGCTCACGTGTGTGA

Relative binding free energy, 0.24 kcal/mol:
TTTGTCACGTGAGGGG
AATTGCACGTGAGTGA

Relative binding free energy, 0.05 kcal/mol:
GGTTGCACGTGCTAAG
AGATGCACGTGCTCGT
ATTGACACGTGGAGGG
TGGCACACGTGGTGCT
TAGGTCACGTGGTTCT
AACGGCACGTGTGATG
GGTGGCACGTGTAGGA
AGAGACACGTGTTTAG
GTGTCCACGTGTTGCG

Relative binding free energy, 0.2 kcal/mol:
GGGGTCACGTGCGTGT
GTAGTCACGTGATTTT
TACTGCACGTGAGGTT
GTACTCACGTGGTGCG

Relative binding free energy, 0.22 kcal/mol:
TTAGTCACGTGGAATA

Relative binding free energy, -0.14 kcal/mol:
AGGTGCACGTGCACGT
TAGGGCACGTGGTATG
GGCCGCACGTGGTTGT

Relative binding free energy, -0.28 kcal/mol:
GAGGGCACGTGGGTAC

Relative binding free energy, -0.03 kcal/mol:
TAGTACACGTGGATGG
CAGGGCACGTGTGGCG
GAAGGCACGTGCGGGT
TAAGTCACGTGGGTTG
AATTGCACGTGTATAG
TCTAACACGTGTGGTG
CATGTCACGTGTTTTA
TAGGGCACGTGGTCGG
GGATGCACGTGTAGTT
TGGTGCACGTGGACAT

Relative binding free energy, 0.43 kcal/mol:
GTATTCACGTGTTGAC

Relative binding free energy, 0.18 kcal/mol:
GCAATCACGTGTGTTT
TGTATCACGTGGGAAC
CCGTTCACGTGGGTGG
TACAGCACGTGATTTT
TCGGTCACGTGTCGTG
TTCTTCACGTGTAGGT

Relative binding free energy, -0.12 kcal/mol:
CGTCGCACGTGGAGGT
GTGGCCACGTGGGCAG

Relative binding free energy, -0.08 kcal/mol:
GGCAACACGTGGCGGG
TGATACACGTGCGGGG
GGTGGCACGTGCGGTA
GTTAGCACGTGGTTAA
TATGTCACGTGGGCGG

Relative binding free energy, 0.12 kcal/mol:
GGCAGCACGTGAGTTG
GTTGGCACGTGTCTAT
GTTTGCACGTGCGGTG
GATTACACGTGGGAGA
ATGGTCACGTGTTGTA

Relative binding free energy, 0.02 kcal/mol:
AGATACACGTGGTTGA
GATGTCACGTGCGTTG
ATTCTCACGTGGTGTA
GGTAGCACGTGTGTCT
GGGCCCACGTGTATGT
AATGTCACGTGTAGGA
GAAAGCACGTGTGGGC
TGCAACACGTGTTGGG
TCTGTCACGTGGGTGC

Relative binding free energy, 0.44 kcal/mol:
GGGGTCACGTGTGATT
GATTTCACGTGGATGG
GGTTTCACGTGATAGG

Relative binding free energy, -0.2 kcal/mol:
GGTCGCACGTGGGTCG
TCTAGCACGTGGGTGA
